Source: PubChem BioAssay AID504861 (Broad Institute, 2011)
Values joined by “and” are separate entries in the source; they are usually repeats but may differ in a detail not shown here. Equal entries are not always repeated. About 290 (24%) of roughly 1,200 compounds were called active. Inconclusive results, whose numbers are uncertain, are shown with a selection of clear calls.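 Rule for the calls: active = compounds lowering cell viability signal with fitted half-maximal concentration at most ten times their highest tested concentration; inconclusive = flat fit with 30 to 70% signal loss, or poor fit; inactive = the rest.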

Assay: HEK293T cell viability reduction, dose response, cytotoxicity control for LMP1 NF-kB inhibitor project, CellTiter-Glo luminescence, cherry-picks (AID 504861)
Settings: CellTiter-Glo ATP luminescence, 48 h; at 26 µM (top of the series)
For Cc1cc(C)nc(N/C(=N\S(=O)(=O)Cc2ccccc2)Nc2ccccc2Br)n1, the activity change, negative = cytotoxicity was inconclusive: -15.3%.
With CCN1CCN(Cc2ccc(NC(=O)c3ccc(C)c(NC(=O)N4CCNC4=O)c3)cc2C(F)(F)F)CC1 the activity change, negative = cytotoxicity was inconclusive: -14.9% and inconclusive: -3.95%.
For COc1ccc(/C=C/c2nc3ccccc3c(=O)o2)cc1, the activity change, negative = cytotoxicity was inconclusive: -20.1%.
In the case of CSc1oc(-c2ccc(F)cc2)nc1S(=O)(=O)c1ccc(F)cc1, the activity change, negative = cytotoxicity is reported as inactive: 5.8%.
With Cc1ccc(C)c(N2CCN(S(=O)(=O)c3ccc4c(c3)CCN4C(=O)CCC(=O)O)CC2)c1 the activity change, negative = cytotoxicity was inconclusive: -3.31%.
In the case of COCCn1c(C)cc(C(=O)COC(=O)c2n[nH]c3ccccc23)c1C, the activity change, negative = cytotoxicity is reported as inconclusive: -18.6%.
In the case of S=C(N/N=C/c1ccc2ncccc2c1)Nc1cccnc1, the activity change, negative = cytotoxicity is reported as inactive: 0.537%.
For O=C(NCc1ccccc1)c1cccc(COc2ccc3c(c2)CCC3)c1, the activity change, negative = cytotoxicity was inconclusive: -3.99%.
For Cc1ccc(C(=O)N2CCN(c3ccc(NC(=O)CSc4ccc(Cl)cc4)cc3)CC2)cc1, the activity change, negative = cytotoxicity was inactive: 6.23%.
With COc1ccc(C(=O)N2CC(=O)Nc3ccccc32)cc1S(=O)(=O)N1CCCC1 the activity change, negative = cytotoxicity was inactive: 17.4%.
With c1ccc2c(-c3ccncc3)c[nH]c2c1 the activity change, negative = cytotoxicity was inactive: -0.974%.
In the case of Cc1ccc(C(=O)N/N=C/c2c(O)ccc3ccccc23)cn1, the activity change, negative = cytotoxicity is reported as inconclusive: -41.2%.
For COc1ccc(C(Nc2ccccn2)c2oc(CO)cc(=O)c2O)cc1 (stereo not drawn), the activity change, negative = cytotoxicity was inconclusive: -7.64%.
With c1ccc(-c2cn3c4c(sc3n2)CCCC4)cc1 the activity change, negative = cytotoxicity was inconclusive: -6.35%.
With O=c1cc(-c2ccccc2)oc2ccc3ccccc3c12 the activity change, negative = cytotoxicity was inconclusive: -31%.
With Oc1c(N=NC(=S)Nc2ccccc2F)c2ccccc2n1Cc1cccc(Cl)c1 the activity change, negative = cytotoxicity was inactive: 2.68%.
With COc1ccc(CNc2ncnc3ccccc23)cc1 the activity change, negative = cytotoxicity was inconclusive: -22.5%.
With COC(=O)CCCC[C@@H]1SC[C@@H](NC(=O)OC)[C@@H]1NC(=O)OC the activity change, negative = cytotoxicity was inconclusive: -1.46%.
For COc1ccc(N2CCN(c3ncnc4c3[nH]c3ccccc34)CC2)cc1, the activity change, negative = cytotoxicity was inconclusive: -5.34%.
In the case of Cn1cc(CC(=O)NCCCN2CCCC2)c2ccccc21, the activity change, negative = cytotoxicity is reported as inactive: 3.13%.
With CCN(CC)S(=O)(=O)c1cccc(-n2c(O)c(C=Nc3ccccc3C(=O)O)c3ccccc3c2=O)c1 the activity change, negative = cytotoxicity was inconclusive: -7.83%.
With CCN1CCN(Cc2ccc(NC(=O)c3ccc(C)c(NC(=O)c4cccc(-c5cn[nH]c(=O)c5)c4)c3)cc2C(F)(F)F)CC1 the activity change, negative = cytotoxicity was inconclusive: 0.095%.
In the case of O=C(Nc1ccc(C(=O)N2CCOCC2)cc1)Nc1cccc(C(F)(F)F)c1, the activity change, negative = cytotoxicity is reported as inconclusive: -5.6%.
With COc1ccc(Cl)cc1NC(=O)CN(C)S(=O)(=O)c1cccs1 the activity change, negative = cytotoxicity was inactive: 0.878%.
For Cc1sc2ncnc(N/N=C/c3ccccc3O)c2c1C, the activity change, negative = cytotoxicity was inconclusive: -14.2%.
For COc1ccc(-c2cc3c(=O)n(CC(=O)NCCCN4CCN(Cc5ccccc5)CC4)ncn3n2)cc1, the activity change, negative = cytotoxicity was inactive: -1.47%.
With O=C(Nc1nc(-c2ccccn2)cs1)c1ccc(Br)s1 the activity change, negative = cytotoxicity was inconclusive: -6.48%.
With CC1=C(C(=O)OCc2ccc3c(c2)OCO3)C(c2ccccc2)NC(=O)N1 (stereo not drawn) the activity change, negative = cytotoxicity was inconclusive: -13.8%.
With Oc1ccccc1C=NN=Cc1c(O)ccc2ccccc12 the activity change, negative = cytotoxicity was inactive: 3.24%.
In the case of COc1ccc(S(=O)(=O)NNC(=O)C2Cc3c(ccc4ccccc34)O2)cc1 (stereo not drawn), the activity change, negative = cytotoxicity is reported as inconclusive: -9.18%.
For Oc1c(C(Nc2nc3ccccc3s2)c2ccco2)ccc2cccnc12 (stereo not drawn), the activity change, negative = cytotoxicity was inconclusive: -18.5%.
For CCOC(=O)c1sc2nc(C)nc(NCc3ccccc3)c2c1C, the activity change, negative = cytotoxicity was inactive: -0.055%.
In the case of CCOc1ccccc1C(=O)NC1CC2CCCC(C1)N2Cc1nnnn1Cc1ccco1 (stereo not drawn), the activity change, negative = cytotoxicity is reported as inconclusive: -6.81%.
With O=C(Nc1nc(-c2ccccn2)cs1)c1ccc(Cl)s1 the activity change, negative = cytotoxicity was inconclusive: -9.75%.
In the case of CCN(CC)c1ccc(/C=N/NC(=O)c2ccc3nc[nH]c3c2)c(O)c1, the activity change, negative = cytotoxicity is reported as inconclusive: -25.2%.
For Oc1cccc(C(Nc2nccs2)c2ccc3cccnc3c2O)c1 (stereo not drawn), the activity change, negative = cytotoxicity was inconclusive: -12.9%.
With Brc1cccc(CSc2nnc(-c3ccncc3)o2)c1 the activity change, negative = cytotoxicity was inconclusive: -9.75%.
In the case of CCCC(=O)NC(c1ccc(C(C)C)cc1)c1ccc2cccnc2c1O (stereo not drawn), the activity change, negative = cytotoxicity is reported as inconclusive: -30.3%.
In the case of CCOC(=O)N1CCC(NC(=O)C2CCCN(Cc3nc(-c4cccc(Cl)c4)oc3C)C2)CC1 (stereo not drawn), the activity change, negative = cytotoxicity is reported as inconclusive: -5.63%.
For c1ccc(C(=NNc2nc3ccccc3s2)c2ccccn2)cc1, the activity change, negative = cytotoxicity was inconclusive: -67.2%.
For O=C1CN(C(=O)c2ccc(F)c(S(=O)(=O)N3CCOCC3)c2)c2ccccc2N1, the activity change, negative = cytotoxicity was inactive: 16.8%.
In the case of CNC(=O)c1[nH]cnc1C(=O)N[C@@H](CCCCNC(=O)OC(C)(C)C)C(=O)OC(C)(C)C, the activity change, negative = cytotoxicity is reported as inactive: 1.6%.
For O=C(Nc1nc2cc3c(cc2s1)OCO3)c1ccco1, the activity change, negative = cytotoxicity was inconclusive: -8.68%.
